Results taken from patent US8877771B2, “Treatment of solid tumors with rapamycin derivatives” (Novartis Pharmaceuticals Corporation, priority 2001, dated 2014).

Columns and labels:
[1] = system: human MEXF 989 melanoma tumor model; assay: Human MEXF 989 melanoma tumor model; type: in vivo; conditions: daily 5 mg/kg
[2] = system: human KB-31 epidermoid tumors; assay: Combination with doxorubicin in KB-31 tumors; conditions: 21 days; Compound A 2.5 mg/kg p.o. once per day alone
[3] = system: multi-drug resistant (MDR) human KB-8511 epidermoid tumor model; assay: Multi-drug resistant human KB-8511 epidermoid tumor model; type: in vivo; conditions: 2.5 mg/kg daily
[4] = system: CA20948 rat pancreatic tumors; assay: Activity in CA20948 rat pancreatic tumors; type: in vivo, male Lewis rats; conditions: compared to vehicle controls
Experimental: • Fragments of A549 tumors (approx. 25 mg; derived from Cell line CCL 185, ATCC, Rockville Md., USA) are transplanted subcutaneously into the left flank of BALB/c nude mice. Treatment is started on day 7 or day 12 following tumor transplantation. The compound to be tested is administered p.o. once per day from day 7/12 to day 38/55, respectively. […] B.2 Activity in KB-31 Human Epidermoid Tumor Xenografts • Fragments of KB-31 tumors (approx. 25 mg; derived from the cell lines obtained from Roswell Park Memorial Institute Buffalo, N.Y., USA) are transplanted subcutaneously into the left flank of BALB/c nude mice. Treatment is started on day 7 or on day 10 following tumor transplantation. The compound to be tested is administered p.o. once per day from day 7/10 to day 25/35, respectively. […] B.3 Activity in CA20948 Rat Pancreatic Tumors • Tumors are established in male Lewis rats by subcutaneous injection of CA20948 tumor cell suspension derived from donor rats into the left flank. Treatment is started on day 4 post inoculation. The compound to be tested is administered p.o. once per day (6 days a week) from day 4 to day 9-15 post inoculation. Antitumor activity is expressed as TIC % as indicated above.

[5] = system: human NCI H-596 lung tumor model; assay: Human NCI H-596 lung tumor model; type: in vivo; conditions: daily 2.5 mg/kg
[6] = 4-week toxicity study in rats; type: in vivo
Text: (§1) Rapamycin or derivatives thereof are well tolerated at dosages required for use in accordance with the present invention.

[7] = system: orthotopic mouse B16/BL6 melanoma tumor model; assay: Orthotopic mouse B16/BL6 melanoma tumor model; type: in vivo; conditions: 5 mg/kg daily
[8] = 4-week toxicity study in monkeys; type: in vivo
Text: as §1

[9] = system: B16/BL6 primary tumor and cervical lymph node metastases; assay: Combination with an antiangiogenic agent (B16/BL6); type: in vivo, C57BL/6 mice
[10] = daily, antiangiogenic agent 100 mg/kg p.o., Compound A 1 mg/kg p.o., alone or combined

CO[C@H]1C[C@@H]2CC[C@@H](C)[C@@](O)(O2)C(=O)C(=O)N2CCCC[C@H]2C(=O)O[C@H]([C@H](C)C[C@@H]2CC[C@@H](OCCO)[C@H](OC)C2)CC(=O)[C@H](C)/C=C(\C)[C@@H](O)[C@@H](OC)C(=O)[C@H](C)C[C@H](C)/C=C/C=C/C=C/1C [Compound A, 40-O-(2-hydroxyethyl)-rapamycin]
final T/C [1]: 9%
T/C [2]: 32%
final T/C [3]: 28%
rate of CA20948 pancreatic tumor growth [4]: significantly and consistently decreases
final T/C [5]: 18%
NTEL [6]: 0.5 mg/kg/day
final T/C (cervical lymph node metastases) [7]: 36%
final T/C (primary tumor) [7]: 20%
NTEL [8]: 1.5 mg/kg/day

Clc1ccc(Nc2nnc(Cc3ccncc3)c3ccccc23)cc1 [antiangiogenic agent]
cervical lymph node weights (regional metastases), T/C [9, 10]: 34%
size of the primary tumor, final T/C [9, 10]: 65%
treated/controls ratio, metastases (interaction analysis) ([9]; metastases): 0.337
treated/controls ratio, primary tumors (interaction analysis) ([9]; primary tumors): 0.66
